# Results taken from the supplement of paper PMC8007513.
# Where a name gives a salt, the structure may show the parent alone. ± gives the standard error. In all, about 1,300 compounds went through this assay and about 130 (10%) showed an effect of 50% or more. This is a selection; strong and weak results do not stand in their true shares.
# System: Trichoderma virens ATCC 9645
# Assay: growth yield (OD600) with compound + IPBC relative to untreated control; higher = less growth inhibition
# Settings: compound concentration: 100 uM, IPBC concentration: 200 ng/ml
# Method in brief: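 Library compounds (100 μM final), with or without a co-applied biocide (200 ng ml^−1), were added to 100 μl aliquots of Trichoderma virens ATCC 9645 spores at 15,000 spores ml^−1 in potato dextrose broth. Cultures were grown at 30 °C in 96-well plates, and OD600 was measured at 40 h and 72 h. Each growth value is a mean of duplicate screens, expressed relative to the control with neither agent.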
Compound,growth yield (40 h),growth yield (72 h)
CC[C@@]1(O)C(=O)OCc2c1cc1n(c2=O)Cc2cc3c(CN(C)C)c(O)ccc3nc2-1 [Topotecan] + CCCCNC(=O)OCC#CI [3-iodo-2-propynyl butylcarbamate (IPBC)],117 ± 6.5%,106 ± 5.6%
Nc1nc(=O)[nH]cc1F [Flucytosine] + CCCCNC(=O)OCC#CI [3-iodo-2-propynyl butylcarbamate (IPBC)],88.5 ± 2.1%,90.4 ± 0.63%
Clc1cc(Cl)c(OCC#CI)cc1Cl [Haloprogin] + CCCCNC(=O)OCC#CI [3-iodo-2-propynyl butylcarbamate (IPBC)],5.24 ± 0.48%,2.83 ± 1.6%
CC(N)C(O)c1ccccc1 (centres undefined) [Phenylpropanolamine hydrochloride] + CCCCNC(=O)OCC#CI [3-iodo-2-propynyl butylcarbamate (IPBC)],97.1 ± 7.5%,101 ± 3.5%
Cc1nccn1CC1CCc2c(c3ccccc3n2C)C1=O (centres undefined) [Ondansetron Hydrochloride] + CCCCNC(=O)OCC#CI [3-iodo-2-propynyl butylcarbamate (IPBC)],78.78 ± 0.32%,101 ± 11%
CC(=O)NC[C@H]1CN(c2ccc(N3CCOCC3)c(F)c2)C(=O)O1 [Linezolid] + CCCCNC(=O)OCC#CI [3-iodo-2-propynyl butylcarbamate (IPBC)],79.6 ± 1.4%,85.4 ± 1.5%
CCOCCn1c(N2CCCN(C)CC2)nc2ccccc21 [Emedastine] + CCCCNC(=O)OCC#CI [3-iodo-2-propynyl butylcarbamate (IPBC)],75.6 ± 1.6%,84.11 ± 0.42%
CC[C@H](C)C(=O)O[C@H]1C[C@H](O)C=C2C=C[C@H](C)[C@H](CC[C@@H](O)C[C@@H](O)CC(=O)O)[C@H]21 [Pravastatin] + CCCCNC(=O)OCC#CI [3-iodo-2-propynyl butylcarbamate (IPBC)],56.9%,58.5%
CNCC[C@@H](Oc1ccccc1C)c1ccccc1 [Tomoxetine hydrochloride] + CCCCNC(=O)OCC#CI [3-iodo-2-propynyl butylcarbamate (IPBC)],78.31 ± 0.48%,87.89 ± 0.84%
O=C(CCCCC(=O)Nc1c(I)cc(I)c(C(=O)O)c1I)Nc1c(I)cc(I)c(C(=O)O)c1I [Iodipamide] + CCCCNC(=O)OCC#CI [3-iodo-2-propynyl butylcarbamate (IPBC)],86.4 ± 3.8%,92.19 ± 0.73%
"O=C(O)Cc1cc(I)c(Oc2ccc(O)c(I)c2)c(I)c1 [Tiratricol, 3,3',5-triiodothyroacetic acid] + CCCCNC(=O)OCC#CI [3-iodo-2-propynyl butylcarbamate (IPBC)]",44 ± 1.8%,73.41 ± 0.63%
COCCCOc1ccnc(C[S+]([O-])c2nc3ccccc3[nH]2)c1C (centres undefined) [Rabeprazole Sodium salt] + CCCCNC(=O)OCC#CI [3-iodo-2-propynyl butylcarbamate (IPBC)],97.1 ± 15%,94.7 ± 5.1%
CCCc1nc2c(C)cc(-c3nc4ccccc4n3C)cc2n1Cc1ccc(-c2ccccc2C(=O)O)cc1 [Telmisartan] + CCCCNC(=O)OCC#CI [3-iodo-2-propynyl butylcarbamate (IPBC)],92.3 ± 4.6%,89.8 ± 3.4%
CCCCOC(=O)c1ccc(O)cc1 [Butylparaben] + CCCCNC(=O)OCC#CI [3-iodo-2-propynyl butylcarbamate (IPBC)],27.5 ± 1.8%,46.9 ± 3.2%
CC(=O)/N=c1/sc(S(N)(=O)=O)nn1C [Methazolamide] + CCCCNC(=O)OCC#CI [3-iodo-2-propynyl butylcarbamate (IPBC)],110 ± 13%,105 ± 7.7%
CCCCC1C(=O)N(c2ccccc2)N(c2ccccc2)C1=O [Phenylbutazone] + CCCCNC(=O)OCC#CI [3-iodo-2-propynyl butylcarbamate (IPBC)],116 ± 9.8%,108 ± 10%
CCCC(=O)Nc1ccc(OCC(O)CNC(C)C)c(C(C)=O)c1 (centres undefined) [Acebutolol hydrochloride] + CCCCNC(=O)OCC#CI [3-iodo-2-propynyl butylcarbamate (IPBC)],91.65 ± 0.79%,93.2 ± 1.8%
CC(=O)Nc1ccc(OCC(O)CNC(C)C)cc1 (centres undefined) [Practolol] + CCCCNC(=O)OCC#CI [3-iodo-2-propynyl butylcarbamate (IPBC)],99.6 ± 11%,103 ± 8.9%
N=C(N=C(N)N)N1CCOCC1 [Moroxidine hydrochloride] + CCCCNC(=O)OCC#CI [3-iodo-2-propynyl butylcarbamate (IPBC)],102 ± 6.7%,101 ± 5%
CC(=O)OCC(=O)[C@@]12OC3(CCCC3)O[C@@H]1C[C@H]1[C@@H]3CCC4=CC(=O)C=C[C@]4(C)[C@@]3(F)[C@@H](O)C[C@@]12C [Amcinonide] + CCCCNC(=O)OCC#CI [3-iodo-2-propynyl butylcarbamate (IPBC)],90.4 ± 6.2%,94.5 ± 5.1%
Cc1c(F)c(N2CCNC(C)C2)cc2c1c(=O)c(C(=O)O)cn2C1CC1 (centres undefined) [Grepafloxacin] + CCCCNC(=O)OCC#CI [3-iodo-2-propynyl butylcarbamate (IPBC)],92.9 ± 9.4%,94.5 ± 5.1%
CCOC(=O)c1cncn1[C@H](C)c1ccccc1 [Etomidate] + CCCCNC(=O)OCC#CI [3-iodo-2-propynyl butylcarbamate (IPBC)],75.45 ± 0.16%,90.6 ± 5.9%
